Measured values published in PubChem BioAssay AID588579 (National Center for Advancing Translational Sciences (NCATS), 2011).
“And” between values parts separate entries of the source, which are not always exact repeats. Equal values may be shown once. Among all 400,000 compounds or so, about 2,200 (0.55%) were called active. About 1% were inconclusive and are not listed. Calls follow the shape of the dose curve; as a rule, active = well fitted inhibition curve with a large enough effect; inconclusive = small, poorly fitted or top-dose-only effect, or another doubt; inactive = no such curve, though single readings can be large or run the other way. This is a selection; strong and weak results do not stand in their true shares. Some structures have more than one record in an assay (separate samples or runs), and their calls can disagree.
% is scaled to controls: 0 for no effect and ±100 for the full control effect; potency is read from the fitted curve at half-maximal effect.

What follows are compounds tested against DNA polymerase kappa (Homo sapiens) (UniProt Q9UBT6) (assay: qHTS for Inhibitors of Polymerase Kappa). Conditions: purified Pol kappa, fluorescent DNA synthesis assay, 10 min; series mostly up to 107 µM; activity, negative = inhibition: at the top concentration.
UniProt Q9UBT6, sequence (Q9UBT6 whole entry, looked up): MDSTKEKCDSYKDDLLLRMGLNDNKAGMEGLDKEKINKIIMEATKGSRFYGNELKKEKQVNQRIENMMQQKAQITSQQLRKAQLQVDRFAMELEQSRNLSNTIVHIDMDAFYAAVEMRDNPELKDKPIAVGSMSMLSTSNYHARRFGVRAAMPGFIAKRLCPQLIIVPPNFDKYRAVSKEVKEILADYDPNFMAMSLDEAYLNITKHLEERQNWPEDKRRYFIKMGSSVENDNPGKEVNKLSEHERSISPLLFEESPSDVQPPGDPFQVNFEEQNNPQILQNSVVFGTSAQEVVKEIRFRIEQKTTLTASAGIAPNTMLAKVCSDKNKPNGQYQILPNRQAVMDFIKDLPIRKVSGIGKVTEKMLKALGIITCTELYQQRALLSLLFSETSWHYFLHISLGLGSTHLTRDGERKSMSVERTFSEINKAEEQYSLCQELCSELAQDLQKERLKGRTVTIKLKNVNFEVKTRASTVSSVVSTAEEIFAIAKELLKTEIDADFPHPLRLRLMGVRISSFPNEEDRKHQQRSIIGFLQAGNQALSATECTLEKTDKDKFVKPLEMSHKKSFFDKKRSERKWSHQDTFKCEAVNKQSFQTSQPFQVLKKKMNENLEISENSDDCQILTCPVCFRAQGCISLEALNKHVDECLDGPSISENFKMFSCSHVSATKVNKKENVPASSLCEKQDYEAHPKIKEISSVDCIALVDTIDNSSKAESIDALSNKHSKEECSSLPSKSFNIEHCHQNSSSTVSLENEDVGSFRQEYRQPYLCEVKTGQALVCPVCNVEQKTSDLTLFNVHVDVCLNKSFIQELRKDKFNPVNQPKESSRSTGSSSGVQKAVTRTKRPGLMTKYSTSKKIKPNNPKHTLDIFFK
Method in brief: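 Kinetic fluorescence readout at 0 and 10 min followed reaction start with substrate at 50 nM final. Beforehand, enzyme (10 nM Pol kappa) stood 15 min with compound at room temperature; buffer-only wells were negative controls.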
In the case of `Cc1c(O)ccc(/C=N/Nc2nc(-c3cccnc3)nc3ccccc23)c1O`, the “activity, negative = inhibition” value is reported as inactive: -24.8%. For `COc1ccc(/C=N/NC(=O)c2cc(O)c(O)c(O)c2)cc1Cn1cc([N+](=O)[O-])cn1`, the Potency was active: 3.98 µM. `Cc1c(C)c2c(c(C)c1O)CC[C@@](C)(CCC[C@@H](C)CCC[C@@H](C)CCCC(C)C)O2` was tested, and the Potency was “inactive”. In the case of `CN(C)c1ccc(-c2ccc([C@H]3[C@@H]4C=CCC[C@@]4(C)C(=O)N3Cc3ccccc3)c(F)c2)cc1`, the “activity, negative = inhibition” value is reported as inactive: -5.68%. For `CN(C)CC[C@H](c1ccc(Cl)cc1)c1ccccn1`, the activity, negative = inhibition was inactive: -4.81% [at 12 µM]. H-KPVGKKRRPVKVYP-OH was tested, and the “activity, negative = inhibition” value was inactive: 12.9% [at 60.1 µM]. With `CCC[C@@H]1CCCO[C@@](C(=O)NCc2cc(C)n(C)n2)(C(F)(F)F)C1` the “activity, negative = inhibition” value was inactive: 1.98%. For `CN(C)S(=O)(=O)c1cc(NC(=O)COC(=O)/C=C/c2ccco2)ccc1Cl`, the Potency was active: 31.6 µM. With `CCOc1ccc(NC(=O)CSc2nc(NS(=O)(=O)c3ccc(C)cc3)cc(=O)[nH]2)cc1` the Potency was active: 39.8 µM. For `O=C(O)C1Nc2ccc(Br)cc2C2C=CCC12` (configuration not stated), the Potency was active: 10 µM. With `CN1CCCN=C1/C=C\c1cccs1` the activity, negative = inhibition was inactive: 0.652% [at 12 µM]. `CCC(=O)Nc1cc2c3c(c1)CCN3C(=O)CC2` was tested, and the Potency was active: 79.4 µM. In the case of `CCOC(=O)[C@@H]1[C@H]2COc3cc(OC)ccc3[C@H]2N2C(=O)N(c3cccc(F)c3)C(=O)[C@]12C`, the “activity, negative = inhibition” value is reported as inactive: -3.87%. `C=C1CC[C@@H]2[C@](C)(CO)[C@H](O)CC[C@@]2(C)[C@@H]1/C=C/C1=CCOC1=O` was tested, and the “activity, negative = inhibition” value was inactive: -7.49%. For `O=C(O)[C@@H]1C[C@@H](C(=O)O)N1`, the Potency was “inactive”. With `CC(=O)c1ccc(S(=O)(=O)N2CCN(C(=O)/C=C/c3ccc4ccccc4n3)CC2)cc1` the Potency was active: 79.4 µM. `O=C1CC(=O)NC(SCC(=O)Nc2ccccc2[N+](=O)[O-])=N1` was tested, and the Potency was active: 39.8 µM. With `COc1cc(NC(=O)c2cccs2)c(C(=O)OCC(=O)NCc2ccco2)cc1OC` the Potency was active: 79.4 µM. `Nc1ccc(O)c2c1C(=O)c1ccccc1C2=O` was tested, and the Potency was active: 28.2 µM. With `CC(N=Cc1cccc(O)c1O)c1ccccc1` (configuration not stated) the Potency was active: 12.6 µM. In the case of `CCOC(=O)COc1ccc2c(C)c(CCN(CC)CC)c(=O)oc2c1Cl`, the Potency is reported as “inactive”. In the case of `Cc1ccc(/C(=C\CN2CCCC2)c2ccccn2)cc1`, the Potency is reported as “inactive”. In the case of `O=C(N/N=C/c1ccc([N+](=O)[O-])o1)c1ccc(O)cc1`, the “activity, negative = inhibition” value is reported as inactive: -23.1%. With `CC(C)=CCc1c(O)cc2oc3c(CC=C(C)C)c(O)c(O)c(CC=C(C)C)c3c(=O)c2c1O` the Potency was active: 79.4 µM. With `COCc1cc(O)c(O)c(O)c1-c1c(COC)cc(O)c(O)c1O` the Potency was active: 794 nM and active: 316 nM and active: 212 nM. `O=c1cc(O)nc(SCc2ccccc2)n1-c1ccccc1` was tested, and the “activity, negative = inhibition” value was inactive: -31.9%. With `Cn1cc(C2=C(c3ccc(Cl)cc3Cl)C(=O)NC2=O)c2ccccc21` the Potency was “inactive”. With `Cn1c(SCC(=O)N/N=C/C=C/c2ccco2)nc2ccccc21` the Potency was active: 79.4 µM. With `Cc1ccc(C(=O)Nc2ccc(S(=O)(=O)O)c3cc(S(=O)(=O)O)cc(S(=O)(=O)O)c23)cc1NC(=O)c1cccc(NC(=O)Nc2cccc(C(=O)Nc3cc(C(=O)Nc4ccc(S(=O)(=O)O)c5cc(S(=O)(=O)O)cc(S(=O)(=O)O)c45)ccc3C)c2)c1` the “activity, negative = inhibition” value was inactive: -98.8%. For `CCCCCCCCCCC(C)(C)C(=O)Nc1c(OC)cc(OC)cc1OC`, the “activity, negative = inhibition” value was inactive: -22.6%. `CC[C@@H]1C(c2ccccc2)=NN(c2ccccc2)[C@H]1C(=O)N1CCOC1=O` was tested, and the “activity, negative = inhibition” value was inactive: 3.54%. For `CC(C)[C@@H]1NC(=O)[C@H](Cc2ccccc2)NC(=O)[C@@H](CC(=O)O)NC(=O)CNC(=O)[C@H](CCCNC(=N)N)NC1=O`, the activity, negative = inhibition was inactive: 4% [at 19.4 µM]. In the case of `CC(C)C[C@@H](C(=O)N[C@@H](Cc1c[nH]c2ccccc12)C(N)=O)N1C[C@]2(CCCN2C(=O)[C@H](Cc2ccccc2)NC(=O)[C@H](Cc2ccccc2)NC(=O)[C@H](CCC(N)=O)NC(=O)[C@H](CCC(N)=O)NC(=O)[C@@H]2CCCN2C(=O)[C@H](CCCCN)NC(=O)[C@@H]2CCCN2C(=O)[C@@H](N)CCCNC(=N)N)CC1=O`, the “activity, negative = inhibition” value is reported as inactive: 17.8% [at 60.1 µM]. `COc1ccc(C2CC(=O)Oc3ccc(C(C)(C)C)cc32)cc1` (configuration not stated) was tested, and the “activity, negative = inhibition” value was inactive: -1.04%. `CC(O)[C@@H](N)C(=O)O` (some centres not stated) was tested, and the activity, negative = inhibition was inactive: 7.07% [at 19.4 µM]. For `CN(C)c1ccc(/C=C/C=C/c2ccnc3ccccc23)cc1`, the “activity, negative = inhibition” value was inactive: -18.6%. With `C=CCc1ccccc1OC[C@H](O)CNC(C)C` the activity, negative = inhibition was inactive: -1.14% [at 12 µM]. With `COc1ccccc1C1CC(=O)Oc2ccc(C(C)(C)C)cc21` (configuration not stated) the “activity, negative = inhibition” value was inactive: -15%. For `COc1cccc(N2CCN(C(=O)c3cc4c(s3)-c3ccccc3OC4)CC2)c1`, the “activity, negative = inhibition” value was inactive: 0.201%. For `O=C(C[C@H]1C/C=C\CC[C@H](Cc2ccc(F)cc2)C(=O)O[C@@H](c2ccccc2)CNC1=O)N[C@@H](CO)Cc1ccccc1`, the “activity, negative = inhibition” value was inactive: -6.44%. For `CCCCCCCCCCCCCCC[C@@H](O)[C@@H](N)CO`, the Potency was “inactive”. For `CC[C@@]1(O)C[C@H](O[C@H]2C[C@@H](N(C)C)[C@@H](O[C@H]3C[C@@H](O)[C@@H](O[C@H]4CCC(=O)[C@@H](C)O4)[C@@H](C)O3)[C@@H](C)O2)c2c(cc3c(c2O)C(=O)c2c(O)cccc2C3=O)[C@H]1C(=O)OC`, the Potency was active: 4.47 µM.
